# Laboratory results reported in PubChem BioAssay AID504339 (National Center for Advancing Translational Sciences (NCATS), 2011).
# “And” between values parts separate entries of the source, which are not always exact repeats. Identical values can stand only once. About 17,000 (4.4%) of roughly 390,000 compounds were called active. The shares of active, inactive and inconclusive entries below differ from those in the screen. Calls come from the whole dose curve; as a rule, active = well fitted inhibition curve with a large enough effect; inconclusive = small, poorly fitted or top-dose-only effect; inactive = no such curve, though single readings can be large or run the other way. Where the call is inconclusive, the potency comes from a doubtful curve fit.
# Molecular target: Lysine-specific demethylase 4A (Homo sapiens) (UniProt O75164)
# Test: qHTS Assay for Inhibitors of JMJD2A-Tudor Domain; note: nearly all actives have a fitted effect of over 50% in size
# Conditions: AlphaScreen JMJD2A-Tudor / H3K4me3 peptide binding; series mostly up to 114 µM
# Potency is the fitted concentration of half-maximal effect; tags give direction and shape of the fitted curve.
# UniProt O75164, sequence (O75164 whole entry, looked up, the tested form may be a part): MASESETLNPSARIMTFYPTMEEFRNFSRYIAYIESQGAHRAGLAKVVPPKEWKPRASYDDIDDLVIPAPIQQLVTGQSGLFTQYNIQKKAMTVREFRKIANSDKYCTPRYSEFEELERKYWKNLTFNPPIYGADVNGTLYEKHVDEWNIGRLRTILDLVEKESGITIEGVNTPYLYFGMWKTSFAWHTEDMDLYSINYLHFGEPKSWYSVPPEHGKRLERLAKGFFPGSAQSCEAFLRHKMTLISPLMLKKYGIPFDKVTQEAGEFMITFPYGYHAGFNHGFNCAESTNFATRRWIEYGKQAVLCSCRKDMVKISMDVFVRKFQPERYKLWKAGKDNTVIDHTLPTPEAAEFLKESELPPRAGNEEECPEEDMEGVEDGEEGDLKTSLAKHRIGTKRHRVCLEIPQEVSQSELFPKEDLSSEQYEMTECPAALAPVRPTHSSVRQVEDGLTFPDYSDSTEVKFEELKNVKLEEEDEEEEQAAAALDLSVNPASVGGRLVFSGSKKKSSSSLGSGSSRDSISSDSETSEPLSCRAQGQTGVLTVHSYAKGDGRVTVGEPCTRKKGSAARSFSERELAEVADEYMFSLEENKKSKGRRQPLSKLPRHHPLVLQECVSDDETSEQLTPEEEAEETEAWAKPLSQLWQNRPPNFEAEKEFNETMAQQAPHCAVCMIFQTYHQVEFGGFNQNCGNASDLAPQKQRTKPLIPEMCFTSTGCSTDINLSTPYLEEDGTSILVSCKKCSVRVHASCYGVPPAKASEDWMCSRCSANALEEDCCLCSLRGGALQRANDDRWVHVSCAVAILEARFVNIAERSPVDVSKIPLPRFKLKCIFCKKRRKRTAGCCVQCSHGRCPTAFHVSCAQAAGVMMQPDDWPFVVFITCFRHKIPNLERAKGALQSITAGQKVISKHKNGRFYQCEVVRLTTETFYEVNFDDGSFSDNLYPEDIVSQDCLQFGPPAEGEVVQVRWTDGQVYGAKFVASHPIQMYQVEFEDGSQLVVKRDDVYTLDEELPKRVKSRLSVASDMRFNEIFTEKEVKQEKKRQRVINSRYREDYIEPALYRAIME
row,SMILES,Potency
1,O=c1c2ccccc2oc2nc(C3CCCCC3)n(Cc3ccco3)c(=O)c12,"inconclusive: 100 µM [inhibitor, single point]"
2,Cc1ccc(S(=O)(=O)NN=C2C(=O)C3CCC2C3Cl)cc1 (stereo unspecified),"inconclusive: 35.5 µM [inhibitor, full curve, poor fit]"
3,O=S(=O)(Nc1ccc(O)c(Sc2nc3ccccc3s2)c1)c1cccc2ccccc12,inactive
4,COc1ccc2cc(C(=O)C3CCCN(Cc4cnc(C)s4)C3)ccc2c1 (stereo unspecified),"inconclusive: 3.98 µM [inhibitor, full curve]"
5,CCCCNC(=O)CNC(=S)N(Cc1ccc(C)cc1)Cc1ccco1,inactive
6,CCOC(=O)c1c(CN(C)C)oc2cc(CN(C)C)c(O)c(CSc3ccccc3)c12,"inconclusive: 56.2 µM [inhibitor, partial curve]"
7,COc1ccc(CCNC(=O)c2cc(C(=O)c3cc(Cl)ccc3O)cn(CCc3ccc(OC)cc3)c2=O)cc1,"inconclusive: 2.82 µM [inhibitor, full curve, poor fit]"
8,O=C(NCc1cccc(F)c1)c1ccc(N2C(=O)Cn3c(cc4sccc43)C2=O)cc1,active: 79.4 µM
9,Cc1cc(C)c(OCC(=O)N(Cc2ccc(N(C)C)cc2)C2CCS(=O)(=O)C2)c(C)c1 (stereo unspecified),"inconclusive: 20 µM [inhibitor, partial curve]"
10,C(=N\Nc1nc(-c2ccccc2)cs1)/c1ccco1,"inconclusive: 70.8 µM [inhibitor, single point]"
11,COC(=O)[C@@]1(Cc2ccccc2)[C@H]2C(=O)N(C)C(=O)[C@H]2[C@H]2CN=C(SCC(=O)c3ccccc3)N21,"inconclusive: 79.4 µM [inhibitor, partial curve]"
12,CC1(C)Cc2cccc(OCC(=O)OCc3nnc(-c4ccc([N+](=O)[O-])cc4)o3)c2O1,"inconclusive: 28.2 µM [inhibitor, partial curve]"
13,CN(C)CCNc1oc(COc2ccc(-c3ccccc3)cc2)nc1C#N,"inconclusive: 35.5 µM [inhibitor, partial curve]"
14,O=C(CSc1nc2ccccc2nc1Cc1ccc(F)cc1)Nc1ccc2c(c1)OCO2,inactive
15,NS(=O)(=O)c1ccc(NC(=O)C2C3C=CC(C3)C2C(=O)O)cc1 (stereo unspecified),inactive
16,COc1ccc2oc(=N)c(-c3nnc4n3CCCCC4)cc2c1,"inconclusive: 11.2 µM [inhibitor, partial curve]"
17,O=C(CN1CCN(Cc2ccc(F)cc2)CC1)Nc1nc2ccccc2s1,"inconclusive: 63.1 µM [inhibitor, partial curve, poor fit]"
18,COc1nc(N)nc(NC(=O)c2cccs2)c1N=O,active: 28.2 µM
19,Cc1cccc(NC(=O)CCS(=O)(=O)c2ccc3c(c2)NC(=O)CS3)n1,"inconclusive: 22.4 µM [inhibitor, full curve, poor fit]"
20,COc1ccc(S(=O)(=O)NN(C)C(=O)c2nn(-c3ccccc3)ccc2=O)cc1,inactive
21,Cc1ccc(CN2CC(C(=O)Nc3nnc(SCc4c(Cl)cccc4Cl)s3)CC2=O)cc1 (stereo unspecified),"inconclusive: 79.4 µM [inhibitor, single point]"
22,Cc1ccc(-c2cc(C(=O)NCc3ccccn3)c3ccccc3n2)cc1C,"inconclusive: 79.4 µM [inhibitor, partial curve]"

row,SMILES,Potency
1,O=C(/C=C/c1ccco1)NCCc1ccc(F)cc1,inactive
2,O=C(Nc1nnc(S(=O)(=O)N2CCCCCC2)s1)c1ccc(Br)cc1,"inactive and inconclusive: 14.1 µM [inhibitor, full curve]"
3,COc1ccc(NC(=O)c2ccc(S(=O)(=O)NCc3cccnc3)cc2)cc1,"inconclusive: 39.8 µM [inhibitor, single point]"
4,CCOC(=O)c1c(Nc2cccc(O)c2)nnc(-c2ccccc2)c1-c1ccccc1,"inconclusive: 50.1 µM [inhibitor, partial curve]"
5,Cc1cc(C)c(S(=O)(=O)Nc2cc(-c3cn4ccccc4n3)ccc2C)cc1C,"inconclusive: 63.1 µM [inhibitor, partial curve]"
6,O=C(CN(C(=O)CCC(=O)Nc1nccs1)c1ccccc1F)NCc1ccc(F)cc1,inactive
7,COc1cc(OC)c(/C=N/NC(=O)c2ccncc2)c(OC)c1,active: 3.98 µM
8,O=C(c1cccc(F)c1)N1CCN(Cc2ccc3c(c2)OCO3)CC1,active: 1 µM
9,Cc1ccc(C(=O)c2sc(Nc3ccccc3F)c(S(=O)(=O)c3ccccc3)c2N)c(C)c1,"inconclusive: 12.6 µM [inhibitor, full curve]"
10,O=C(N/N=C1\CC2CC=CC12)c1ccc(O)cc1 (stereo unspecified),inactive
11,CC(=NCCc1c(C)[nH]c2ccc(C)cc12)C1=C(O)CC(c2ccccc2)CC1=O (stereo unspecified),"inconclusive: 11.2 µM [inhibitor, full curve]"
12,Cc1ccc2nc(-c3ccccc3)c(CN3CCN(c4ccccc4F)CC3)n2c1,"inconclusive: 20 µM [inhibitor, full curve]"
13,COc1cccc(/C(O)=C2/C(=O)C(=O)N(CCN(C)C)C2c2ccc(Br)cc2)c1 (stereo unspecified),"inconclusive: 79.4 µM [inhibitor, partial curve]"
14,Cc1ccc(NS(=O)(=O)c2ccc3[nH]c4c(c3c2)CCCC4)c(C)c1,active: 28.2 µM
15,CCOc1ccccc1-c1nc(-c2cc3ccc(C)cc3[nH]c2=O)no1,"inconclusive: 56.2 µM [inhibitor, full curve, poor fit]"
16,Cc1ccccc1NC(=S)N(CCCN1CCOCC1)Cc1ccccn1,active: 3.55 µM
17,CN(/N=C/c1ccc2c(c1)OCO2)c1ccccc1,"inconclusive: 31.6 µM [inhibitor, single point]"
18,COC(=O)c1ccccc1OCCCN(C)C,active: 89.1 µM
19,COc1ccc(OCC(=O)Nc2c(C(=O)N3CCN(C)CC3)oc3ccccc23)cc1,"inconclusive: 25.1 µM [inhibitor, full curve, poor fit]"
20,COc1cc(NS(=O)(=O)c2ccc(N/C=C(\C#N)c3nc4ccccc4o3)cc2)nc(OC)n1,"inconclusive: 79.4 µM [inhibitor, single point]"
21,CCOC(=O)C1=C(N)Oc2ccc3ccccc3c2C1c1ccc(O)c(OC)c1 (stereo unspecified),"inconclusive: 44.7 µM [inhibitor, partial curve]"
22,CCOc1ccccc1N1CC(c2nc3ccccc3n2CCOc2ccc(OC)cc2)CC1=O (stereo unspecified),"inconclusive: 56.2 µM [inhibitor, partial curve]"

row,SMILES,Potency
1,COc1ccc(-c2noc(CN3CCC(Cc4ccccc4)CC3)n2)cc1,inactive
2,O=C(O)CCc1ccc(-c2ccc(Br)cc2)o1,active: 56.2 µM
3,COc1ccc(-c2n[nH]c(=S)n2-c2ccc3c(c2)OCCO3)cc1,active: 3.16 µM
4,O=C(c1ccccc1O)N1N=C(C(F)(F)F)CC1(O)c1ccc([N+](=O)[O-])cc1 (stereo unspecified),"inconclusive: 56.2 µM [inhibitor, partial curve]"
5,CCN(CC)S(=O)(=O)c1cc(NC(=O)C(C)Nc2ccccc2N2CCOCC2)ccc1C (stereo unspecified),"inconclusive: 50.1 µM [inhibitor, partial curve]"
6,CCCCCc1cc(=O)oc2c(C(CCN(CC)CC)c3ccc(N(C)C)cc3)c(OC)cc(OC)c12 (stereo unspecified),active: 28.2 µM
7,O=C(O)C1CCN1C1CCCCC1 (stereo unspecified),active: 31.6 µM
8,Cc1ccc(CN2CCN(/N=C/c3ccccc3)CC2)cc1,"inconclusive: 50.1 µM [inhibitor, partial curve]"
9,CN1C/C(=C\c2ccc(N3CCOCC3)cc2)C(=O)/C(=C/c2ccc(N3CCOCC3)cc2)C1,"inconclusive: 15.8 µM [inhibitor, partial curve, poor fit]"
10,COc1cc(C(CCN2CCCC(C)C2)c2c(OC)cc(OC)c3c(-c4ccccc4)cc(=O)oc23)cc(OC)c1OC (stereo unspecified),"inconclusive: 22.4 µM [inhibitor, partial curve] and inconclusive: 50.1 µM [inhibitor, partial curve]"
11,Cc1ccc(Cl)cc1NC(=O)C[n+]1ccc(Cc2ccc([N+](=O)[O-])cc2)cc1,"inconclusive: 50.1 µM [inhibitor, partial curve]"
12,N#CCC(=O)Nc1ccc(C(=O)OCC(=O)NNC(=O)c2ccc(Cl)cc2)cc1,"inconclusive: 35.5 µM [inhibitor, full curve]"
13,CC(C)c1nnc(NC(=O)c2nc(S(=O)(=O)Cc3ccc(F)cc3)ncc2Cl)s1,"inconclusive: 1.26 µM [inhibitor, full curve, poor fit]"
14,C=CCOc1ccc(CN(C)CC(=O)Nc2ccccc2[N+](=O)[O-])cc1,active: 12.6 µM
15,CC1=CC(=O)C=C(C)C1=NOS(=O)(=O)c1ccccc1,inactive
16,COc1ccc(OC)c(NC(=O)Cc2c(C(=O)O)[nH]c3ccc(Cl)cc23)c1,"inconclusive: 39.8 µM [inhibitor, partial curve]"
17,O=[N+]([O-])c1cccc(Nc2c3ccccc3nc3ccccc23)c1,"inconclusive: 56.2 µM [inhibitor, partial curve]"
18,COc1ccc(C(C)C)cc1S(=O)(=O)NCc1ccccn1,active: 2.24 µM
19,O=C1NC2(NN1c1ccccc1)C1CC3CC(C1)CC2C3 (stereo unspecified),inactive
20,CCc1ccc(NC(=O)C2=CC=CN3CCS(=O)(=O)N=C23)cc1,inactive
21,O=C(COC(=O)c1cccc(OC(F)F)c1)Nc1ncccn1,"inconclusive: 50.1 µM [inhibitor, partial curve]"
22,CCN(CC)S(=O)(=O)c1cccc(C(=O)N/N=C/c2ccccc2OCC(=O)O)c1,"inconclusive: 28.2 µM [inhibitor, partial curve]"
